Results from PubChem BioAssay AID1240 (Sanford-Burnham Center for Chemical Genomics, 2008).
Hit rate of the full screen: of about 50,000 compounds, about 800 (1.6%) showed an effect of 50% or more. The list shows a part of the results.

Molecular target: Bcl-2-like protein 10 (Homo sapiens) (UniProt Q9HD36)
Assay: TR3 peptide-Bcl-B binding displacers, biochemical primary FP assay, phenotype converters (AID 1240);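 also: 0% = Bcl-B with tracer peptide and DMSO and 100% = tracer peptide lacking Bcl-B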
Conditions: GST-Bcl-B / FITC-TR3 peptide fluorescence polarization; stronger effect = higher value; compound at 3.75 mg/L

Sequence of UniProt Q9HD36 (Q9HD36 whole entry, looked up): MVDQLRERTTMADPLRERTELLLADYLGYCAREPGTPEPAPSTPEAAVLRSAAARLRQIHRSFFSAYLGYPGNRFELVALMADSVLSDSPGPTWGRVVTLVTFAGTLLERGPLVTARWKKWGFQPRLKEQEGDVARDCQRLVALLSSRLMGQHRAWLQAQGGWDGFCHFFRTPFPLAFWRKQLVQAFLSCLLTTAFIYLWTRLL

SMILES | displacement
COc1ccc(N=CC2=C(O)CC(C)(C)CC2=O)cc1OC | -7.2%
COc1cc(C=C2C(=O)NC(=O)NC2=O)cc(Cl)c1OCCOc1ccccc1C | 9%
O=C(/C=C/c1ccc(-c2cc(Cl)ccc2Cl)o1)c1ccc([N+](=O)[O-])cc1 | -8.1%
O=C(Nc1ccc2oc(-c3ccc(Cl)cc3Cl)nc2c1)c1ccc(Br)o1 | -0.5%
COc1ccccc1NC(=O)CN1C(=O)/C(=C\c2cc(OC)c(OC)c(OC)c2)SC1=S | 36.7%
CC1(C)N=C(N)NC(Nc2ccccc2)=N1 | 0.2%
COc1ccc(CC(=O)NCc2ccccc2Cl)cc1OC | -1.3%
CCOC(=O)c1c(NC(=O)CC2SC(N)=NC2=O)sc(C)c1C (centres undefined) | -19.8%
CCOCCOC(=O)C1=C(C)NC(=O)NC1c1ccccc1OCc1ccccc1 (centres undefined) | -0.7%
COc1ccc(-c2cc(C(=O)N/N=C(\C)c3ccc(N)cc3)[nH]n2)cc1 | -1%
O=C1OC(c2ccc(F)cc2)=N/C1=C\c1cccc(Br)c1 | 74.2%
O=C(NCCc1ccccc1Cl)C1CC(=O)N(c2ccccc2)C1 (centres undefined) | 13.8%
Cc1cc(C)n(-c2cc(Nc3cccc(F)c3)ncn2)n1 | -6.3%
CCN(CC)CCCCOc1cccc(OC)c1 | -10.2%
C/C(=N/NC(=O)c1cncc(Br)c1)c1ccc2ccccc2c1 | 2.4%
CC(=O)c1cc(F)c(N2CCN(C(=O)c3ccccc3Br)CC2)cc1C | -5.4%
Cc1cc(C)cc(N=Cc2ccc(OC3CSC3)cc2)c1 | 4.5%
COC(=O)c1ccc(NC(=O)C(=O)NCCCN(C)C)cc1 | -2.4%
CC(=O)NC1=NN(C(C)=O)C(C)(c2cccc([N+](=O)[O-])c2)S1 (centres undefined) | -5.9%
COc1ccc(Cl)cc1C(=O)NN=C1CCN(C)CC1 | 7.1%
O=C(Nc1ccc(N2CCCCC2)c(Cl)c1)c1ccc(-c2ccc(F)cc2)o1 | -0.6%
C=CCNc1nc(-c2ccc(F)cc2F)cs1 | -3.1%

SMILES | displacement
CCN(CC)c1ccc(C(=O)Nc2ccc(F)c(Cl)c2)cc1 | 0.1%
N#Cc1cc(C#N)c(SCC(=O)c2ccccc2)nc1N | 37.4%
COc1ccc(-n2c(C)ccc2C)c(N)c1 | 44.7%
COc1ccc(C(=O)NCC2CCCO2)c(OC)c1 (centres undefined) | 18.2%
Cc1ccc(NC(=O)C2CC2(c2ccccc2)c2ccccc2)c(C)c1 (centres undefined) | 2.3%
CC(C)c1ccc(CNC(=O)CSCC(=O)Nc2ccc3ccccc3c2)cc1 | 14.2%
CCCCNC(=O)C(CCC(=O)OCc1ccccc1)NC(=O)Cc1ccccc1 (centres undefined) | 14.4%
Cc1cc2c(cc1C)NC(c1ccc(Cl)c(F)c1)C1=C(CC(C)(C)CC1=O)N2 (centres undefined) | -1.9%
CCN(CC)c1ccc(C=Nc2cccc([N+](=O)[O-])c2C)c(O)c1 | 12.9%
Cc1ccc(-c2nc3cc(Cl)ccc3o2)cc1NC(=O)COc1ccccc1[N+](=O)[O-] | 40.2%
O=C(Nc1ccccc1C(=O)c1ccccc1)c1ccc([N+](=O)[O-])cc1 | -11%
C1CN(CC23CC4CCC(CC(C4)C2)C3)CCO1 | -3.6%
O=C(O)c1ccc(NC(=O)c2ccc(Cl)c(S(=O)(=O)N3CCOCC3)c2)cc1 | -11.9%
COCCNC(=O)c1ccc(CN(c2ccccc2)S(C)(=O)=O)cc1 | 15.7%
CCN(CC)c1ccc(NC(=O)c2ccc(C(C)C)cc2)cc1 | 5.1%
O=S(=O)(NC1C2CC3CC(C2)CC1C3)c1ccc2ccccc2c1 (centres undefined) | 0.3%
CS(=O)(=O)N(CC(=O)N1CCOCC1)c1cccc(C(F)(F)F)c1 | 2.8%
COc1ccc(NC(=O)c2ccccc2NC(=O)c2ccccc2)cc1 | -6%
Cc1oc2cc(OCc3ccc([N+](=O)[O-])cc3)ccc2c(=O)c1-c1nc2ccccc2n1C | 5.4%
COc1ccc(O)c(C(=O)CC(=O)c2ccc(C(C)(C)C)cc2)c1 | -22.9%
O=C(Cc1ccccc1)Nc1ccncc1 | 5.2%
COc1ccc(NC(=O)c2ccccc2C(F)(F)F)cc1 | -7.7%

SMILES | displacement
O=C(N/N=C/c1ccccc1O)c1cnccn1 | -20.4%
Nc1ccc(Br)cc1/C(=N/O)c1ccccc1 | -0.7%
COc1cc(OC)c(OC)cc1/C=N/NC(=O)CCC1C(=O)NN=C1C (centres undefined) | 0.8%
Clc1cccc(CNCc2ccc3c(c2)OCO3)c1 | -3.8%
COc1ccccc1NC(=O)c1cc2ccccc2o1 | 0.2%
COc1cc(OC)cc(C(=O)Nc2ccc(Br)c(C)c2)c1 | 2.6%
O=C(NNc1nc(-c2ccccc2)cs1)c1cccc(Br)c1 | 11%
CCOC(=O)c1ccc(NC(=O)CC2SC(=O)NC2=O)cc1 (centres undefined) | 10.5%
COCCNC(=O)/C(=C\c1ccc(OC)cc1)NC(=O)c1ccc(C)cc1 | 9%
COc1c(Cl)ccc(Cl)c1C(=O)Nc1c(C)cccc1C(C)C | 5.2%
O=C1N/C(=N/N=C/c2ccccc2O)SC1Cc1ccccc1 (centres undefined) | 1.4%
COc1ccc(C(=O)N2CCN(C(c3ccccc3)c3ccccc3)CC2)cc1OC | 5.4%
O=C(/C=C(\O)c1ccccc1)c1ccc([N+](=O)[O-])cc1 | -0.6%
Cc1ccccc1N1C(=O)NC(=O)/C(=C/c2cn(CC(=O)Nc3ccccc3)c3ccccc23)C1=O | 53.6%
Cc1ccc(C(C)C)c(OCC(=O)Nc2ccc(OC(F)(F)F)cc2)c1 | 3.7%
O=C(Nc1cccnc1)c1cnn2c1NC(c1cccs1)CC2C(F)(F)F (centres undefined) | 6.8%
Cc1ccc(N(CC(=O)NC(C)c2ccccc2)S(C)(=O)=O)cc1Cl (centres undefined) | -1.3%
Cc1cc(C)cc(N2C(=O)/C(=C/c3ccc(Oc4ccc([N+](=O)[O-])cn4)cc3)C(=O)NC2=S)c1 | 12.1%
C/C(CC(=O)NCc1ccco1)=N\NC(=O)Cc1cccs1 | -9.5%
COc1cc(/C=N/N2C(=O)CSC2=S)ccc1OCCOc1ccc(C)c(C)c1 | 45%
O=C(Nc1ccc(S(=O)(=O)N2CCc3ccccc32)cc1)c1ccc(-c2ccccc2)cc1 | 89.5%
CSCCOC(=O)C1=C(C)NC(=O)NC1c1cccc2ccccc12 (centres undefined) | 5.3%

SMILES | displacement
CC1(C)C=C(/C=C/c2ccccc2)NC(=O)N1 | 7.5%
CC(C)(C)NC(=O)c1ccc(N2C(=O)c3ccc([N+](=O)[O-])cc3C2=O)cc1 | -0.1%
COc1ccc(/C=C/C(=O)Nc2ccc(Oc3ccccc3)cc2)cc1OC | -8%
COc1ccc(NC(=O)C2CC(=O)N(c3ccc(F)cc3)C2)c(OC)c1 (centres undefined) | 11.7%
COc1cccc(C(=O)NCCc2nc3ccccc3[nH]2)c1 | -7.2%
CC(C)c1ccc(-c2csc(NC(=O)C3C4CCC(C4)C3C(=O)O)n2)cc1 (centres undefined) | 7.6%
COc1cccc(/C=N\n2c(C)nnc2C)c1O | 10.1%
CN(C)c1ccc(C(=S)N2CCN(c3ccccc3)CC2)cc1 | 15.6%
CS(=O)(=O)N1CCN(Cc2c[nH]c3ccccc23)CC1 | 20.1%
COc1ccc(CCNc2cc(N3CCN(S(C)(=O)=O)CC3)ccc2[N+](=O)[O-])cc1OC | -5.5%
O=C1CSC(=O)N1CNc1cccc2ccccc12 | 12.9%
CC(Oc1ccc(Cl)cc1Cl)C(=O)N1CCN(C/C=C/c2ccccc2)CC1 (centres undefined) | -1.6%
CC(=O)O/N=C1\CCCc2c1[nH]c1ccccc21 | -1.4%
COC(=O)c1ccc(C2C(C(=O)OC(C)C)=C(C)N=C3SCCC(=O)N32)cc1 (centres undefined) | 11.3%
c1ccc2cc(OCCOCCOc3ncnc4ccccc34)ccc2c1 | 16.4%
Cc1ccc2oc(-c3cccc(N)c3C)nc2c1 | 12.1%
O=C(/C=C/c1ccc2c(c1)OCO2)N1CCCC1 | -2.3%
CCc1cc2c(=O)c(-c3nc4ccccc4[nH]3)coc2c(CN(CC)CC)c1O | -12%
O=C(Nc1cc([N+](=O)[O-])ccc1Cl)c1cc(-c2cccs2)nc2ccccc12 | 7.8%
COc1ccc(COC(=O)C2=C(C)NC3=C(C(=O)CCC3)C2c2cccc3ccccc23)cc1 (centres undefined) | 10.9%
Cc1ccc(NC(=O)C(=O)NCCN2CCN(C(=O)c3ccco3)CC2)cc1 | 7.1%
Cc1noc(NS(=O)(=O)c2ccc(NC(=O)CCCOc3ccc(Cl)cc3Cl)cc2)c1C | -6.3%

SMILES | displacement
Cc1ccccc1N1C(=O)C(O)C(O)C1=O (centres undefined) | 21.1%
CCCN(CCC)CCCNC(=O)/C=N\O | -3.4%
Cn1c(=O)[nH]c(=O)c2c1nc1n2CC(COc2ccccc2)O1 (centres undefined) | -3.5%
C=CCOc1ccc2c(c1)C(=NO)c1cc(OCC=C)ccc1-2 | 10.3%
COc1cc(NC(=O)c2ccc(Cl)cc2Cl)ccc1NC(=O)c1ccco1 | 8.5%
CCc1ccc(N2C(=O)NC(=O)/C(=C\c3ccc(OCC(=O)O)c(Br)c3)C2=O)cc1 | -16.2%
COc1ccc(N(CC(=O)NCCc2ccccc2)S(C)(=O)=O)cc1Cl | -4.3%
Cc1cccc(NC(=O)Nc2c(C)n(C)n(-c3ccccc3)c2=O)c1 | -6.6%
O=C(c1nn2c(c1Br)NC(c1cccs1)CC2C(F)(F)F)N1CCOCC1 (centres undefined) | 6.2%
Cc1ccc(-n2nc3cc(C)c(NC(=O)c4ccccc4Br)cc3n2)cc1 | -10.4%
Cc1cccc(C(=O)NNC(=O)c2ccc(-c3ccccc3)cc2)c1 | 9.4%
CCOC(=O)c1ccccc1NC(=O)C1COc2ccccc2O1 (centres undefined) | -10.1%
COc1cc(/C=C2/SC(=S)NC2=O)ccc1OC(=O)c1ccc([N+](=O)[O-])cc1 | 12.1%
COc1ccc(N2C(=O)NC(=O)/C(=C/c3ccc(-c4ccc([N+](=O)[O-])cc4C)o3)C2=O)cc1 | 13.6%
O=C(NCCc1ccccc1)c1ccc(C#Cc2ccccc2)cc1 | -8.7%
O=C(Nc1cc(Cl)cc(Cl)c1)c1cc(I)ccc1Cl | 2.3%
O=c1cc(-c2ccc([N+](=O)[O-])cc2)nc2cc(-c3ccc(F)cc3)[nH]n12 | 7.5%
Cc1[nH]c2ccccc2c1/C=C/c1nc2ccccc2c(=O)n1-c1cccc([N+](=O)[O-])c1 | 1.9%
CC1=C(C(=O)OCc2ccccc2)C(c2ccc(C(F)(F)F)cc2)C2=C(CCCC2=O)N1 (centres undefined) | -5.3%
COc1ccc(C2CC(=O)C3=C(C2)Nc2ccccc2NC3c2ccc(NC(C)=O)cc2)cc1 (centres undefined) | 6.8%
O=C1CC(N2CCN(c3ccccc3Cl)CC2)C(=O)N1c1cccc(Cl)c1 (centres undefined) | 14.4%
